Reference: the supplement of paper PMC11741623
The other results are listed elsewhere or left out. Interaction screen of human proteins with wild-type SARS-CoV-2 proteins by split-DHFR complementation in yeast, 1 µg/mL methotrexate. Value = fitness of the pair (three or more lineages) minus that of the viral protein without a human partner, on a scale set by negative (0) and fused positive (1) controls, mean of up to three cultures; higher = more likely to interact. Active = false discovery rate below 0.05 (one-sided t-test) in at least one culture. Nearly all pairs are not hits, and differences among them are mostly noise (correlation between cultures about 0.3); most hits were seen in one culture only. Human sequences are the Swiss-Prot entries looked up by gene name; the clone may be another isoform. NSP2 values were corrected by the authors for a growth advantage. Listed are human proteins with a hit and a random twelfth of the others.

B1: NRSN2, Q9GZP1 (protein)
chain: MMPSCNRSCSCSRGPSVEDGKWYGVRSYLHLFYEDCAGTALSDDPEGPPVLCPRRPWPSLCWKISLSSGTLLLLLGVAALTTGYAVPPKLEGIGEGEFLVLDQRAADYNQALGTCRLAGTALCVAAGVLLAICLFWAMIGWLSQDTKAEPLDPEADSHVEVFGDEPEQQLSPIFRNASGQSWFSPPASPFGQSSVQTIQPKRDS
B2: ACO1, P21399 (protein)
chain: MSNPFAHLAEPLDPVQPGKKFFNLNKLEDSRYGRLPFSIRVLLEAAIRNCDEFLVKKQDIENILHWNVTQHKNIEVPFKPARVILQDFTGVPAVVDFAAMRDAVKKLGGDPEKINPVCPADLVIDHSIQVDFNRRADSLQKNQDLEFERNRERFEFLKWGSQAFHNMRIIPPGSGIIHQVNLEYLARVVFDQDGYYYPDSLVGTDSHTTMIDGLGILGWGVGGIEAEAVMLGQPISMVLPQVIGYRLMGKPHPLVTSTDIVLTITKHLRQVGVVGKFVEFFGPGVAQLSIADRATIANMCPEYGATAAFFPVDEVSITYLVQTGRDEEKLKYIKKYLQAVGMFRDFNDPSQDPDFTQVVELDLKTVVPCCSGPKRPQDKVAVSDMKKDFESCLGAKQGFKGFQVAPEHHNDHKTFIYDNTEFTLAHGSVVIAAITSCTNTSNPSVMLGAGLLAKKAVDAGLNVMPYIKTSLSPGSGVVTYYLQESGVMPYLSQLGFDVVGYGCMTCIGNSGPLPEPVVEAITQGDLVAVGVLSGNRNFEGRVHPNTRANYLASPPLVIAYAIAGTIRIDFEKEPLGVNAKGQQVFLKDIWPTRDEIQAVERQYVIPGMFKEVYQKIETVNESWNALATPSDKLFFWNSKSTYIKSPPFFENLTLDLQPPKSIVDAYVLLNLGDSVTTDHISPAGNIARNSPAARYLTNRGLTPREFNSYGSRRGNDAVMARGTFANIRLLNRFLNKQAPQTIHLPSGEILDVFDAAERYQQAGLPLIVLAGKEYGAGSSRDWAAKGPFLLGIKAVLAESYERIHRSNLVGMGVIPLEYLPGENADALGLTGQERYTIIIPENLKPQMKVQVKLDTGKTFQAVMRFDTDVELTYFLNGGILNYMIRKMAK
B3: EMD, P50402 (protein)
chain: MDNYADLSDTELTTLLRRYNIPHGPVVGSTRRLYEKKIFEYETQRRRLSPPSSSAASSYSFSDLNSTRGDADMYDLPKKEDALLYQSKGYNDDYYEESYFTTRTYGEPESAGPSRAVRQSVTSFPDADAFHHQVHDDDLLSSSEEECKDRERPMYGRDSAYQSITHYRPVSASRSSLDLSYYPTSSSTSFMSSSSSSSSWLTRRAIRPENRAPGAGLGQDRQVPLWGQLLLFLVFVIVLFFIYHFMQAEEGNPF

Target: SARS-CoV-2 E
Experiment: yeast fitness gain over the viral ORF with no human partner (scaled fitness); higher = more likely to interact
Description: (§1)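 Split mouse DHFR complementation in pooled diploid yeast: human ORFeome clones carry one fragment and viral ORFs the other; barcoded lineages compete in 1 µg/mL methotrexate and fitness is read by barcode sequencing in up to three cultures.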

Binder	yeast fitness gain
B1	inactive: 0.0316
B2	inactive: 0.109
B3	inactive: -0.00739

Target: SARS-CoV-2 M
Experiment: as above
Description: as §1

Binder	yeast fitness gain
B1	inactive: -0.0177
B2	inactive: 0.0221
B3	inactive: 0.064

Target: SARS-CoV-2 N
Experiment: as above
Description: as §1

Binder	yeast fitness gain
B1	inactive: 0.0988
B3	inactive: 0.116

Target: SARS-CoV-2 NSP1
Experiment: as above
Description: as §1

Binder	yeast fitness gain
B1	inactive: -0.128
B2	inactive: 0.0484
B3	inactive: -0.00463

Target: SARS-CoV-2 NSP10
Experiment: as above
Description: as §1

Binder	yeast fitness gain
B1	inactive: -0.0115
B2	inactive: 0.0373
B3	inactive: 0.0222

Target: SARS-CoV-2 NSP12
Experiment: as above
Description: as §1

Binder	yeast fitness gain
B1	inactive: -0.0603
B2	inactive: 0.112
B3	inactive: 0.072

Target: SARS-CoV-2 NSP13
Experiment: as above
Description: as §1

Binder	yeast fitness gain
B1	inactive: 0.0105
B2	inactive: -0.0759
B3	inactive: 0.0495

Target: SARS-CoV-2 NSP14
Experiment: as above
Description: as §1

Binder	yeast fitness gain
B1	inactive: -0.211
B2	inactive: -0.0565
B3	inactive: -0.0555

Target: SARS-CoV-2 NSP16
Experiment: as above
Description: as §1

Binder	yeast fitness gain
B1	inactive: 0.105
B2	inactive: 0.0712
B3	inactive: 0.00686

Target: SARS-CoV-2 NSP2
Experiment: as above
Description: as §1

Binder	yeast fitness gain
B1	inactive: -0.152
B2	active: 0.34
B3	inactive: -0.0762

Target: SARS-CoV-2 NSP4
Experiment: as above
Description: as §1

Binder	yeast fitness gain
B1	inactive: -0.0189
B2	inactive: -0.205
B3	inactive: 0.362

Target: SARS-CoV-2 NSP5
Experiment: as above
Description: as §1

Binder	yeast fitness gain
B1	inactive: -0.0532
B2	inactive: 0.0508
B3	inactive: -0.00498

Target: SARS-CoV-2 NSP7
Experiment: as above
Description: as §1

Binder	yeast fitness gain
B1	inactive: 0.0552
B2	inactive: -0.217
B3	inactive: -0.0215

Target: SARS-CoV-2 NSP8
Experiment: as above
Description: as §1

Binder	yeast fitness gain
B1	inactive: -0.0218
B2	inactive: -0.0817
B3	inactive: 0.0368

Target: SARS-CoV-2 NSP9
Experiment: as above
Description: as §1

Binder	yeast fitness gain
B1	inactive: 0.0389
B2	inactive: 0.0963
B3	inactive: 0.0864

Target: SARS-CoV-2 ORF10
Experiment: as above
Description: as §1

Binder	yeast fitness gain
B1	inactive: -0.0143
B2	inactive: 0.0296
B3	inactive: 0.00966

Target: SARS-CoV-2 ORF3A
Experiment: as above
Description: as §1

Binder	yeast fitness gain
B1	inactive: -0.0155
B2	inactive: -0.0262
B3	inactive: -0.00905

Target: SARS-CoV-2 ORF3B
Experiment: as above
Description: as §1

Binder	yeast fitness gain
B1	inactive: -0.0228
B2	inactive: 0.0393
B3	inactive: -0.0124

Target: SARS-CoV-2 ORF6
Experiment: as above
Description: as §1

Binder	yeast fitness gain
B1	inactive: -0.0617
B2	inactive: -0.00687
B3	inactive: -0.00575

Target: SARS-CoV-2 ORF7A
Experiment: as above
Description: as §1

Binder	yeast fitness gain
B1	inactive: 0.0842
B2	inactive: 0.0441
B3	inactive: 0.108

Target: SARS-CoV-2 ORF7B
Experiment: as above
Description: as §1

Binder	yeast fitness gain
B1	inactive: -0.0237
B2	inactive: -0.0397
B3	active: 0.239

Target: SARS-CoV-2 ORF8
Experiment: as above
Description: as §1

Binder	yeast fitness gain
B1	inactive: 0.0862
B2	inactive: 0.0376
B3	inactive: 0.0273

Target: SARS-CoV-2 ORF9B
Experiment: as above
Description: as §1

Binder	yeast fitness gain
B1	inactive: 0.00781
B2	inactive: 0.00316
B3	inactive: 0.0119

Target: SARS-CoV-2 ORF9Bwu (the 73-codon ORF)
Experiment: as above
Description: as §1

Binder	yeast fitness gain
B1	inactive: 0.0405
B2	inactive: -0.108
B3	inactive: -0.0261

Target: SARS-CoV-2 S
Experiment: as above
Description: as §1

Binder	yeast fitness gain
B1	inactive: 0.0375
B2	inactive: 0.00593
B3	inactive: 0.0534

Target: SARS-CoV-2 NSP15
Experiment: as above
Description: as §1

Binder	yeast fitness gain
B2	inactive: 0.0908
B3	inactive: -0.0855

Target: SARS-CoV-2 NSP6
Experiment: as above
Description: as §1

Binder	yeast fitness gain
B2	inactive: -0.0751
B3	inactive: 0.0625
